Changes are numbered by the printed parent chain. Results are given in words; binding and its absence hold for the method and conditions named. Some entries that bind do so weakly or less than the wild type. Tags and fused reporters may be left off the sequences shown.
B1: Ste12p (protein, UniProt P13574 1-688)
chain: MKVQITNSRTEEILKVQANNENDEVSKATPGEVEESLRLIGDLKFFLATAPVNWQENQIIRRYYLNSGQGFVSCVFWNNLYYITGTDIVKCCLYRMQKFGREVVQKKKFEEGIFSDLRNLKCGIDATLEQPKSEFLSFLFRNMCLKTQKKQKVFFWFSVAHDKLFADALERDLKRESLNQPSTTKPVNEPALSFSYDSSSDKPLYDQLLQHLDSRRPSSTTKSDNSPPKLESENFKDNELVTVTNQPLLGVGLMDDDAPESPSQINDFIPQKLIIEPNTLELNGLTEETPHDLPKNTAKGRDEEDFPLDYFPVSVEYPTEENAFDPFPPQAFTPAAPSMPISYDNVNERDSMPVNSLLNRYPYQLSVAPTFPVPPSSSRQHFMTNRDFYSSNNNKEKLVSPSDPTSYMKYDEPVMDFDESRPNENCTNAKSHNSGQQTKQHQLYSNNFQQSYPNGMVPGYYPKMPYNPMGGDPLLDQAFYGADDFFFPPEGCDNNMLYPQTATSWNVLPPQAMQPAPTYVGRPYTPNYRSTPGSAMFPYMQSSNSMQWNTAVSPYSSRAPSTTAKNYPPSTFYSQNINQYPRRRTVGMKSSQGNVPTGNKQSVGKSAKISKPLHIKTSAYQKQYKINLETKARPSAGDEDSAHPDKNKEISMPTPDSNTLVVQSEEGGAHSLEVDTNRRSDKNLPDAT
B2: Ime4p fused to the Gal4p activating domain (protein, UniProt P41833 1-600)
chain: MINDKLVHFLIQNYDDILRAPLSGQLKDVYSLYISGGYDDEMQKLRNDKDEVLQFEQFWNDLQDIIFATPQSIQFDQNLLVADRPEKIVYLDVFSLKILYNKFHAFYYTLKSSSSSCEEKVSSLTTKPEADSEKDQLLGRLLGVLNWDVNVSNQGLPREQLSNRLQNLLREKPSSFQLAKERAKYTTEVIEYIPICSDYSHASLLSTSVYIVNNKIVSLQWSKISACQENHPGLIECIQSKIHFIPNIKPQTDISLGDCSYLDTCHKLNTCRYIHYLQYIPSCLQERADRETASENKRIRSNVSIPFYTLGNCSAHCIKKALPAQWIRCDVRKFDFRVLGKFSVVIADPAWNIHMNLPYGTCNDIELLGLPLHELQDEGIIFLWVTGRAIELGKESLNNWGYNVINEVSWIKTNQLGRTIVTGRTGHWLNHSKEHLLVGLKGNPKWINKHIDVDLIVSMTRETSRKPDELYGIAERLAGTHARKLEIFGRDHNTRPGWFTIGNQLTGNCIYEMDVERKYQEFMKSKTGTSHTGTKKIDKKQPSKLQQQHQQQYWNNMDMGSGKYYAEAKQNPMNQKHTPFESKQQQKQQFQTLNNLYFAQ

Experiments:
[1] = target: T1, Kar4p E260G fused to the Gal4p DNA-binding domain (S. cerevisiae) (UniProt P25583); assay: two-hybrid; one-hybrid assay: Kar4p-Gal4 DNA-binding domain recruits endogenous Ste12p to drive the HIS3 reporter in PJ69-4A; 10-fold serial dilutions on SC-HIS with 3 uM alpha-factor, 30 degrees; graded ++++ to -
T1 sequence: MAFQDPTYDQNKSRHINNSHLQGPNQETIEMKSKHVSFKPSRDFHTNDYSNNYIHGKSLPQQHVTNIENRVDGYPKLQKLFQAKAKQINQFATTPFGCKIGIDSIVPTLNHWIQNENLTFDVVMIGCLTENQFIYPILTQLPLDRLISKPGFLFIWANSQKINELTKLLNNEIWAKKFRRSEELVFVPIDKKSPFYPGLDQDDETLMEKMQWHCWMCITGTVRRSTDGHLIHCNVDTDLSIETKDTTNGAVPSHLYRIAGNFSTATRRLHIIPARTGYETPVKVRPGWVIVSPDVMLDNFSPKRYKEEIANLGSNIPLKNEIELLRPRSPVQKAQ

[2] = target: T2, Kar4p H213Y fused to the Gal4p DNA-binding domain (S. cerevisiae) (UniProt P25583); assay: as above
T2 sequence: T1 sequence with H213Y, G260E

[3] = target: T3, Kar4p W156G fused to the Gal4p DNA-binding domain (S. cerevisiae) (UniProt P25583); assay: as above
T3 sequence: T1 sequence with W156G, G260E

[4] = target: T4, Kar4p C127Y fused to the Gal4p DNA-binding domain (S. cerevisiae) (UniProt P25583); assay: two-hybrid; KAR4-GBD alleles with IME4-GAD in PJ69-4 diploids; 24 hours in meiosis-inducing conditions, then 10-fold serial dilutions on SC-HIS and SC-ADE (HIS3 and ADE2 reporters); graded ++++ to -
T4 sequence: T1 sequence with C127Y, G260E

[5] = target: T5, Kar4p L255F fused to the Gal4p DNA-binding domain (S. cerevisiae) (UniProt P25583); assay: as above
T5 sequence: T1 sequence with L255F, G260E

[6] = target: T6, Kar4p Q132K fused to the Gal4p DNA-binding domain (S. cerevisiae) (UniProt P25583); assay: as above
T6 sequence: T1 sequence with Q132K, G260E

Binder | binding [1] | binding [2] | binding [3] | binding [4] | binding [5] | binding [6]
B1 | binds | binds | no binding |  |  | 
B2 |  |  |  | binds | binds | no binding
